# Over roughly 33,000 sequences, “E-score (dimensionless, -0.5 to 0.5)” has its median near -0.058; the highest 2% begin near 0.35. Some of the results follow.
# Tested on: MvaT
# Experiment: PBM 8-mer E-score (mean of HK and ME arrays) (E-score (dimensionless, -0.5 to 0.5)); higher = stronger relative binding preference; most listed sequences are background and not binding sites
# Description: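 Protein binding microarray: GST-tagged full-length MvaT (P. aeruginosa PAO1) bound to two universal double-stranded 60-mer arrays (ME and HK), each with a constant 25-mer primer and a variable 35-mer region covering all 8-mers. The 8-mer E-score (rank-based, range -0.5 to 0.5, >0.45 = specific binding) is the mean of the two arrays.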
row,Sequence,PBM 8-mer E-score
1,AACGTTGA,0.0809
2,AACACACG,-0.0166
3,CGATTGTA,0.0896
4,ATTGCCTC,-0.021
5,CAAGGGTA,-0.108
6,CGGAGAGC,-0.215
7,AGCTAAAT,0.0519
8,GAAAACTA,0.159
9,ATATGGCC,-0.0872
10,CTCGATTA,0.203
11,CGGGCGTC,-0.294
12,GCAAGGCA,-0.0943
13,AGAGTTGC,0.00592
14,GGAAACAC,0.0664
15,ACGTGGCT,-0.164
16,CGTCTTTC,-0.136
17,ACTTTCTG,0.158
18,CGACGAAC,0.00938
19,CGCTTATA,0.263
20,GCAGTAGA,-0.125
21,AAGCAAAG,-0.0179
22,AGATGCCC,-0.176
23,CTGTGTCA,-0.0988
24,CCTATTAC,0.151
25,CGCGATCA,-0.248

row,Sequence,PBM 8-mer E-score
1,CACCTCTG,-0.112
2,ACGACCCT,-0.204
3,AGGTGGTA,-0.0312
4,CTCTCCAC,-0.153
5,ACGTTTCT,-0.0736
6,GCGAATGA,0.0883
7,AATCCAAC,0.101
8,AAGGCTCG,-0.297
9,CCCTTCGG,-0.401
10,ACCGCGGC,-0.257
11,CAACCTGC,-0.136
12,ACTACCGC,-0.0317
13,AGACTCCC,-0.295
14,TGCCTCAA,-0.0684
15,CACTCCAC,-0.152
16,ATCTAGGC,-0.161
17,TCACGAAA,-0.0349
18,ACGCTTCG,-0.121
19,CGCCGGCC,-0.216
20,AGACTCCT,-0.131
21,ATAATCAA,0.333
22,CCATCCGA,-0.19
23,ATTTGACA,0.218
24,TATGATAA,0.336
25,AAACGCAT,0.0996

row,Sequence,PBM 8-mer E-score
1,TCGGGAAA,-0.0403
2,GTCTAATA,0.269
3,CTAAGGGC,-0.264
4,GCAATTTA,0.307
5,AGAGTGCC,-0.173
6,CGGCGGAG,-0.236
7,CTCGACGA,-0.231
8,CCTGCTCG,-0.298
9,CTCAGGGA,-0.168
10,GCCAATCC,-0.28
11,GATCGCTA,-0.103
12,GCACTGGA,-0.132
13,AAAGTAGA,0.036
14,ATGCGGCA,0.0233
15,GCAGGGGC,-0.265
16,AGAAACCG,-0.127
17,GTCTGATA,0.15
18,TATTGGAA,0.178
19,ACTTTACA,0.233
20,AGGCTCGG,-0.25
21,ATTGCCGG,-0.116
22,CAGCGCAC,-0.172
23,CGCTCTAC,-0.145
24,CGGATAAA,0.143
25,CCCGACTA,-0.0289

row,Sequence,PBM 8-mer E-score
1,GGAGCAAA,-0.231
2,CGGGGCGC,-0.199
3,ACGGCGGG,-0.1
4,AACAGGCC,-0.106
5,ATGTAATG,0.205
6,CCAAACCC,-0.142
7,CAAGCCTC,-0.192
8,TTCAGAAA,0.0688
9,AGTACTTG,0.295
10,CGAATATA,0.355
11,CGATCAGA,-0.155
12,ACCTCAAT,0.0554
13,TAATTGGA,0.291
14,AAGTTTCG,0.265
15,AAGTGATA,0.186
16,CGACCGCC,-0.236
17,TAAAATCA,0.198
18,CACGGAGA,0.0353
19,AACATGTT,0.295
20,CGGGCACA,-0.0933
21,GCCGATAA,0.182
22,CTCCAGGA,0.0255
23,AACTTACC,0.28
24,GACTAAAA,0.25
25,ACGTATAG,0.122

row,Sequence,PBM 8-mer E-score
1,CTAACAAC,-0.0297
2,GTTTCCAA,0.128
3,AGTCCCTA,-0.216
4,GGGTCAAA,-0.132
5,ATGCGCAG,-0.0689
6,ATAGGATA,0.14
7,AAGGTTGT,0.0331
8,CCCGCACA,-0.129
9,AACCTGGG,-0.274
10,GCAAAGTA,0.207
11,TCCCCACA,-0.239
12,TTAACTAA,0.313
13,GCTTTGCC,-0.22
14,AGCGGCGA,-0.132
15,AGTCAATA,0.151
16,ACGGATCA,-0.0355
17,CCGGTATA,0.0421
18,AAATTCTA,0.226
19,GCTTCCAA,-0.152
20,CCTTACCC,-0.248
21,GCGCAGGA,-0.227
22,CTTCTATA,0.168
23,CATACGAG,-0.0518
24,AATACCCT,-0.0322
25,AAAAGCCC,-0.218

row,Sequence,PBM 8-mer E-score
1,AGTGAGGA,-0.19
2,AAAGCTTG,-0.118
3,GGGTTCTA,-0.21
4,GTTAGCGA,-0.0488
5,AAGGAATC,0.0296
6,ACACCTGA,-0.0987
7,ACAGGCAG,-0.0744
8,ACACGGCA,-0.0734
9,CTCCGCTC,-0.262
10,ATTACCCG,0.0471
11,ATGCTTCC,-0.167
12,TCAGCTCA,-0.27
13,CTCCGGTA,-0.227
14,AAAGTCTG,0.0761
15,CACTGACA,-0.00173
16,CTGTTCAC,-0.0978
17,CATCAATG,-0.108
18,GTTTTTGA,0.138
19,ATGTACTC,0.169
20,ACCCAATG,-0.00445
21,ACGGCATC,-0.231
22,AACTTCGT,0.198
23,CCCACCCG,-0.0901
24,GTTGTGCA,0.0608
25,AAGACGGT,-0.159

row,Sequence,PBM 8-mer E-score
1,CCGGTGGC,-0.232
2,ACCTTATC,0.0334
3,GCCTTCTA,-0.249
4,AGCCTCAA,-0.127
5,AGGCGGAA,-0.193
6,GGGCGGTA,-0.114
7,TCGCACAA,0.175
8,AGGCAACA,0.0465
9,ATACATTG,0.277
10,ATGTAGGC,-0.106
11,CACCTTCG,-0.239
12,GGGTATAC,-0.157
13,CGAATTAG,0.118
14,GCGGACTA,0.00106
15,ATAAGTGG,0.134
16,AACGTGCG,-0.162
17,CTACTTCA,0.024
18,CGCACCAC,-0.205
19,TCGCTGAA,-0.175
20,ACACCAAT,0.133
21,CTATATGA,0.124
22,TCCTGACA,-0.0341
23,ACCAGGAT,-0.14
24,CCTCCGGC,-0.291
25,GCAGATCA,-0.113

row,Sequence,PBM 8-mer E-score
1,CCTCTACG,-0.244
2,GCAATTAC,0.169
3,TAATCAAA,0.244
4,AAACCTAT,0.0993
5,CAATAAGG,0.16
6,ACTGACCA,-0.12
7,ATGGCGGC,-0.0516
8,ATTATAGG,0.304
9,AAACCAAC,0.223
10,CAAGTGCA,0.0265
11,AATTACAC,0.272
12,ATCGTATA,0.115
13,CAGAACTG,0.0437
14,AATATTCT,0.36
15,AGCGGTAT,0.0451
16,CGGACCCA,-0.129
17,CAGCCAAC,-0.0896
18,CTATATAA,0.421
19,AAGGCAGG,-0.103
20,AACGTGAG,-0.0776
21,TATCTGGA,0.0853
22,ACTTCTAC,0.0796
23,CGCCGACA,-0.115
24,CACGCCGC,-0.239
25,AGCGTGTC,-0.134

row,Sequence,PBM 8-mer E-score
1,ACTGTACA,0.169
2,TAAAAAAA,0.321
3,GGTTGAGA,-0.2
4,ATTCCTAG,-0.0112
5,ACGGCTTG,-0.258
6,CGGTGTGC,-0.155
7,CCACGGTC,-0.022
8,ACGACCAT,-0.228
9,CCAACCCA,0.0271
10,ATTCAGGC,-0.0885
11,ACACGGTG,-0.367
12,CGGATCGA,-0.168
13,AAAGGCGA,-0.185
14,GGCGCTAC,-0.31
15,AGAGCGTC,-0.256
16,GGCAGCTA,-0.171
17,GTGCATCA,-0.12
18,AGGTCAAT,0.111
19,CCACTCGG,-0.17
20,TATACGCA,0.215
21,AGTCGCGC,-0.0346
22,CCGATGAC,-0.175
23,CGTCCTGC,-0.237
24,CGATGACC,-0.183
25,ACAGCGAT,-0.0549

row,Sequence,PBM 8-mer E-score
1,ATCTTTAG,0.14
2,CCAGTGCG,-0.176
3,CATGTTGC,0.0214
4,ACCAATTC,0.0147
5,CGGCTCCA,-0.242
6,ATTCCGCC,-0.0889
7,CAAACAGA,0.137
8,ATCTAGGA,-0.167
9,ACAAGCGT,-0.207
10,AATAAGGT,0.224
11,ATGATAAG,0.2
12,CAGCCGAA,-0.0963
13,CACGGGAG,-0.282
14,ACGGGCCT,-0.295
15,CGCCGGTA,-0.169
16,AAACTATT,0.371
17,GATCCGGC,-0.298
18,GTTAAGTA,0.203
19,CTCATATA,0.324
20,CGCATCCC,-0.262
21,AATATCGA,0.28
22,CGTACGTA,-0.092
23,AGCGCAGA,-0.1
24,CGCGAAAC,-0.134
25,ATGGTGAA,0.0344

row,Sequence,PBM 8-mer E-score
1,AAAACTAA,0.285
2,GCATTCCA,-0.209
3,ATGAATCC,0.136
4,CTGATGCA,-0.137
5,AAGCTTAT,0.219
6,AGATGGGC,-0.115
7,TAGTAATA,0.352
8,ACTACCAT,0.116
9,ACTAGGGA,-0.0429
10,CTCGGTAA,-0.0418
11,AGATATCT,0.306
12,AACAACAC,-0.00641
13,AAGAGACT,-0.04
14,CCATTCGG,-0.177
15,AACATTAC,0.234
16,CGAAACCA,-0.0747
17,ACCGATAT,0.298
18,CATCAATA,0.181
19,ACGCCGAA,-0.0701
20,CGAACCCG,-0.123
21,CAATAGGA,-0.107
22,ACAAACGC,-0.0457
23,CTATCCGC,0.0675
24,GACCCAGC,-0.26
25,CTTATTGA,0.22

row,Sequence,PBM 8-mer E-score
1,CAGGTCGG,-0.319
2,ACCACTTA,0.159
3,GCAGGAGA,-0.113
4,CAGCCATC,-0.234
5,AGCGGGCG,-0.323
6,ATACTACG,0.0865
7,AGATTCTA,0.102
8,ACCCGTAT,-0.0154
9,GCGTCTAC,-0.0397
10,AGGCTTAG,-0.104
11,GCAAGGAA,-0.184
12,AATTAAAC,0.382
13,CAAAGTAC,0.154
14,CACGAATA,0.168
15,GGAGCTCA,-0.209
16,ATTGCTAG,0.0803
17,ACAGGCTC,-0.2
18,AGCGTGGA,-0.0231
19,CGGTTCAA,0.0411
20,GGGGTAAC,-0.0939
21,GCCAGGGA,-0.273
22,ATCACAAA,0.139
23,AACATCGA,0.151
24,CACAGCCG,-0.0685
25,AGTCCTTA,-0.0536

row,Sequence,PBM 8-mer E-score
1,CCGTTAAA,0.254
2,CTCAGAAC,-0.17
3,ATACTGTC,0.0689
4,CTCCTGCA,-0.17
5,AGGCGCGC,-0.25
6,AGAAGTCA,-0.117
7,AGAGAACG,-0.171
8,ATGTTTAA,0.391
9,CGACAGAA,0.0376
10,ACAAAGGG,0.0162
11,CGGCTACG,-0.245
12,GAGTCTAA,0.0971
13,GCTTTCAA,-0.0697
14,CGTGCCAC,-0.209
15,CATCCGAG,-0.147
16,CGTGTTAA,0.21
17,GGCACACA,-0.0231
18,AGTAGGGA,0.0467
19,ATCTCCTC,-0.247
20,CTACGCTC,-0.112
21,GCTCTGTA,-0.178
22,AGTAAAAA,0.251
23,AGCCTCAC,-0.158
24,CCGAATGA,-0.037
25,CGGCGCAC,-0.189

row,Sequence,PBM 8-mer E-score
1,AATGAACC,-0.0199
2,ACCACCGT,-0.155
3,AATATTCC,0.375
4,ACGGGGGG,-0.169
5,AAATAATT,0.438
6,ATTTTGCG,0.195
7,GCGCCCCC,-0.301
8,CCGTCGAG,-0.198
9,AAGGGTTA,-0.0484
10,GGTGCTTA,-0.0393
11,ACTCTATC,-0.0304
12,ATACGTTC,0.0708
13,CAAATCGA,0.0462
14,ACAGTACG,0.0527
15,GATACGAA,0.094
16,GACGCCGC,-0.279
17,ACCCGGCA,-0.264
18,CCGCAATA,0.149
19,CAACAAAG,0.214
